About 6,900 (2%) of roughly 340,000 compounds were called active. Cut-off read from the data, not from the text of the source: active = inhibition above about 30%; inactive = below that, where a call was filed. This is a selection; strong and weak results do not stand in their true shares. The source gives no active or inactive call for entries shown without one.

The experiment deals with D(2) dopamine receptor (Homo sapiens) (UniProt P14416). In words: HTS Assay for Allosteric Antagonists of the Human D2 Dopamine Receptor: Primary Screen for Antagonists. Note: 0% is about no effect. Conditions: HEK293 TREx D2 cells, calcium flux, dopamine EC80; at 10 µM; stronger effect = higher value. An outline of the steps: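 Calcium mobilization kinetics were recorded at 1 s intervals in tetracycline-induced HEK293 T-REx D2 cells, first for 180 s after compound addition and then 180 s after EC80 dopamine.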
Chain of UniProt P14416 (P14416 whole entry, looked up): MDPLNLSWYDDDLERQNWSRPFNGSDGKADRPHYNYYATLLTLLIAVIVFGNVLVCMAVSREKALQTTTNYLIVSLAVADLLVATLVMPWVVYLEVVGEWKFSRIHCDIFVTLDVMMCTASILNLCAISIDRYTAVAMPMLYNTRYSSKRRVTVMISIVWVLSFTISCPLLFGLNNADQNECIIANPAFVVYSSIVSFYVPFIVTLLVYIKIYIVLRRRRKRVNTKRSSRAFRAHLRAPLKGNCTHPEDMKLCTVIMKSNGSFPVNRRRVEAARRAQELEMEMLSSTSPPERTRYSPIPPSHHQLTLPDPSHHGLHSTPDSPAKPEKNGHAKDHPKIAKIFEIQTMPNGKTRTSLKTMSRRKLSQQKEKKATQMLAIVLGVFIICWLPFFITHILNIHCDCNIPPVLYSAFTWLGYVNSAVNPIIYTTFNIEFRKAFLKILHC
As for `O=S(=O)(c1ccc2ccccc2c1)n1nc(-c2ccco2)nc1NCc1cccc(Cl)c1`, the inhibition stood at 6.54%. As for `COc1ccc(S(=O)(=O)c2cn(C)c3cc(N4CCCC4)c(F)cc3c2=O)cc1`, the figure is 8.23%; as for `COc1cccc(CNC(=O)c2cnc(N3CCCC3)nc2C)c1`, -4.85%; as for `COC(=O)CNC(=O)C(Cc1ccccc1)NS(=O)(=O)c1ccc2c(c1)c(=O)n(C)c(=O)n2C` (configuration not stated), 9.69%. The value for `COCCN1Cc2cccc(C(=O)Nc3ccc(C)cc3C)c2C1=O` was 1.74%. The value for `Cc1c(Cl)cccc1NC(=O)c1cnc2sc(N3CCCC3)nn2c1=O` was -1.08%; that for `Cc1ccc(NC(=O)Cn2c(=O)n(CCCCCC(=O)NCc3ccc(F)cc3)c(=O)c3sccc32)c(C)c1` was -1.91%; that for `CCN(C(=O)C1CCN(S(=O)(=O)c2ccc3c(c2)CCCN3C(=O)C2CCC2)CC1)c1cccc(C)c1` was -7.3%. Take `Cc1cc2c(cc1S(=O)(=O)N1CCC(C)CC1)OCC(=O)N2`: the inhibition was -15.9%.

As for `O=C(COc1ccccc1)Nc1ccc(S(=O)(=O)N(Cc2ccccc2)c2ccccc2)cc1`, the inhibition is -12.7%.

With `COC(=O)c1sc2cccc(F)c2c1S(=O)(=O)Nc1cc(OC)cc(OC)c1`, the inhibition was determined as 15.4%. As for `O=C(CSc1nc2ccccc2c(=O)n1CCC(=O)NC1CCCCC1)Nc1ccccc1Cl`, the figure is 2.71%. As for `Cc1nn(CCCC(=O)NCc2ccccc2)c(=O)c2nn(-c3ccccc3)c(C)c12`, the figure is -7.43%; as for `CCC(=O)N1CCc2cc(S(=O)(=O)NCCC(=O)Nc3ccc(OC)c(Cl)c3)ccc21`, 1.31%; as for `CC(C)c1nnc(N2C(=O)c3oc4ccccc4c(=O)c3C2c2cccc(O)c2)s1` (configuration not stated), -0.477%. `O=C(CSc1cn(CC(=O)N2CCCCCC2)c2ccccc12)Nc1ccccc1F`: the inhibition came out at 15.1%.

Consider `CCc1nnc2c(NCc3ccccc3OC)nc3ccccc3n12`, for which the inhibition is -2.09%. The value for `COc1ccc(Nc2nc(N)nc(CN3CCN(c4ccccn4)CC3)n2)cc1` was active: 72.7%. For `COc1ccccc1C(C)NCC(=O)NCc1ccc(C)cc1` (configuration not stated), the inhibition was active: 37.2%. For the compound `COc1ccc(CCNC(=O)c2cc(-c3ccccc3)nc3ccccc23)cc1OC`, the inhibition was -4.4%. As for `CCn1cc(C(=O)OCC(=O)Nc2cc(C)cc(C)c2)c(=O)c2ccc(C)nc21`, the figure is 18.8%; as for `COC(=O)c1scc(-c2ccc(C)cc2)c1S(=O)(=O)Nc1cccc(C(F)(F)F)c1`, -6.1%; as for `COc1cccc(CNC(=O)c2cc(=O)[nH]c3ccc(S(=O)(=O)N4CCCCC4)cc23)c1`, 17.2%. The value for `CC(C)C(=O)OC1=CN(Cc2ccccc2)S(=O)(=O)c2ccccc21` was 14.6%; that for `COc1ccccc1CNC(=O)c1ccc2c(c1)sc1nc(-c3ccc(F)cc3)cn12` was 0.0818%. As for `Cc1cccc(C)c1Nc1c(-c2ccc(Cl)s2)nc2ncccn12`, the inhibition is 8.05%. As for `NC(=O)CSc1nccn1Cc1ccccc1`, the figure is active: 44.8%; as for `Cc1ccc(Cl)cc1NC(=O)CN(C)S(=O)(=O)c1ccc2c(c1)n(C)c(=O)c(=O)n2C`, 2.56%. As to `COc1ccc(C2C(C(N)=O)=C(C)Nc3nc(-c4ccccc4Cl)nn32)cc1` (configuration not stated), the inhibition came to 19.4%. As for `O=C(O)CC1SC(=Nc2ccccc2)N(c2ccccc2)C1=O` (configuration not stated), the figure is active: 42.6%; as for `COc1cccc(NC(=O)CC2C(=O)OCCN2Cc2ccccc2)c1` (configuration not stated), 14.6%.

Take `Cc1ccc2oc(C(=O)N(Cc3ccccc3F)C3CCS(=O)(=O)C3)c(C)c2c1` (configuration not stated): the inhibition was -7.19%. For the compound `Cn1c(=O)[nH]c(=O)c2c1nc1n(CCO)c(-c3ccccc3)cn21`, the inhibition was found to be 3.09%.

For `O=C(CSc1nc2c(cnn2-c2ccc(F)cc2)c(=O)[nH]1)Nc1ccc(Br)cc1`, the inhibition is -5.46%.

`CCCCOc1ccc(-c2cc3c(=O)n(CC(=O)Nc4ccc(Cl)cc4Cl)ccn3n2)cc1`: the inhibition is -14.8%. In the case of `CCOc1cccc2cc(-c3nnc(Nc4ccc(F)c(Cl)c4)s3)c(=O)oc12`, the inhibition was -9.18%. With `Cc1ccc(-c2nn(CC(=O)NC3CCCCC3)c3c2cnc2ccc(F)cc23)cc1C`, the inhibition amounted to 4.43%.

With `CC1CCc2c(sc(NC(=O)COc3ccccc3)c2C(=O)Nc2ccccc2Cl)C1` (configuration not stated), the inhibition was 9.13%. The value for `Cc1ccc(CSCC(=O)N2CCN(c3cc(Cl)ccc3C)CC2)cc1` was 3.55%; that for `Cc1ccc(-n2nc(C(=O)NCCN(C)C)c(=O)n(C)c2=O)cc1` was -4.65%. Regarding `O=C(Nc1ccc(SC(F)F)cc1)c1cc(-c2ccc3c(c2)OCCO3)on1`, the inhibition was -6.47%. The value for `O=C(O)c1ccccc1OC(C(=O)Nc1cc(Cl)cc(Cl)c1)c1ccccc1` (configuration not stated) was active: 36.1%; that for `Cc1noc(Cn2c(=O)c3cc4c(cc3n(CC(=O)Nc3cccc(Cl)c3)c2=O)OCO4)n1` was -3.24%. The value for `CCOc1ccc(CNC(=O)c2c(C)nn(-c3ccc(F)cc3)c2-n2cccc2)cc1` was -11%; that for `Cc1cccc(C)c1NC(=O)CN1C(=O)S/C(=C\c2cccn2C)C1=O` was active: 30.1%. For the compound `CC(=O)Nc1nonc1-c1nnc(SCC(=O)Nc2ccc(C)cc2C)n1C`, the inhibition was -10.1%. With `COc1ccc(NC(=O)[C@@H](c2ccccc2)N2Cc3ccccc3C2=O)cc1OC`, the inhibition was -18.8%. For `Cc1nc(C)n(CC(C)C(=O)N2CCN(S(=O)(=O)c3ccccc3)CC2)n1` (configuration not stated), the inhibition was active: 31.7%. As for `CCN(CC)c1cc(C)c2cc(NC(=O)/C=C/c3ccc(C)cc3)ccc2n1`, the figure is 0.673%. For the compound `CC(=O)c1ccc(N2CCN(C(=O)c3cc4cc5cc(C)ccc5nc4s3)CC2)cc1`, the inhibition amounted to 12.5%. Take `Cc1ccc(C)c(NC(=O)C2CCCN(S(=O)(=O)c3ccc4[nH]c(=O)ccc4c3)C2)c1` (configuration not stated): the inhibition is -4.72%. As to `CCC(=O)Nc1nc(-c2ccc3c(c2)OCCO3)cs1`, the inhibition is active: 31.8%. As for `Cn1nccc1NC(=O)Nc1ccc(Cl)cc1`, the figure is active: 43%; as for `Cc1ccc(C(=O)c2oc3ccccc3c2NC(=O)c2cc(-c3ccccc3)on2)cc1F`, -4.74%; as for `CCCN(CCC)C(=O)C1CCCN(S(=O)(=O)c2ccc3c(c2)oc(=O)n3C)C1` (configuration not stated), 16%.

Take `Cc1ccc(/C=N/NC(=O)Cn2nnc(N)n2)cc1`: the inhibition is active: 41%.

With `O=C(c1ccccc1)c1ccccc1NC(=O)c1ccccc1C(=O)O`, the inhibition was -1.84%. As for `COc1ccc(CCNC(=O)[C@@H](NC(N)=O)C(C)C)cc1`, the inhibition was active: 50.1%. As for `COc1ccc(-c2noc(-c3ccc(NC4CCCC4)c([N+](=O)[O-])c3)n2)cc1`, the figure is 8.01%; as for `Oc1c(Br)cc(Br)cc1-c1nc2ccccc2s1`, 6.61%.

In the case of `CS(=O)(=O)N(CC(=O)NCCSc1ccccc1)c1cc(C(F)(F)F)ccc1Cl`, the inhibition is -15.6%. The value for `COc1cccc(C2C(C(=O)Nc3ccccc3)=C(C)Nc3nc(-c4ccccc4)nn32)c1` (configuration not stated) was -19.5%; that for `COc1ccc(OC)c(NC(=O)CSc2cn(CC(=O)N3CCOCC3)c3ccccc23)c1` was -5.96%; that for `COc1ccc(Cl)cc1NC(=O)c1cc2c(s1)-c1ccccc1OC2` was -1.38%. As for `CCc1ccc(OC(C)C(=O)Nc2c(C(=O)c3ccccc3)oc3ccccc23)cc1` (configuration not stated), the figure is 6.03%; as for `Cc1nn(CC(C)C)c(=S)[nH]c1=O`, active: 31.6%. Regarding `COCCNC(=O)CCc1nc2cccnc2n1Cc1ccc(OC)cc1`, the inhibition is 6.08%. Take `Cc1c(C(=O)N2CCC(C(=O)Nc3ccc(F)cc3)CC2)sc2nc[nH]c(=O)c12`: the inhibition is -22.5%. Regarding `Cc1noc2ncnc(NCc3cccc(Cl)c3)c12`, the inhibition was -6.67%.

With `Cc1cccc(-n2c3nc(=O)n(C)c(=O)c-3cc3ccc(Cl)cc32)c1C`, the inhibition was found to be 2.59%. As to `CS(=O)(=O)N1CCc2cc(C(=O)NCc3ccccc3)ccc21`, the inhibition was 8.12%. In the case of `Oc1cccc(Nc2ncnc3sc4c(c23)CCCC4)c1`, the inhibition is 5.62%. The value for `CCOc1ccc(-n2c(SCC(=O)N3CCCCC3)nc3c([nH]c4ccccc43)c2=O)cc1` was 0.804%; that for `O=C(Cn1c(=O)n(Cc2ccc3c(c2)OCO3)c(=O)c2ccc(C(=O)NC3CCCCC3)cc21)Nc1ccccc1F` was -24.5%; that for `Cc1cccn2c(=O)c3cc(C(=O)NCc4ccccc4Cl)sc3nc12` was -22.8%.

As to `COc1ccc(-c2cc(C(=O)Oc3ccc(C)c(C)c3)c3ccccc3n2)cc1`, the inhibition was found to be 7.2%.

For `O=C(NC1CC2CCCC(C1)N2Cc1cccs1)c1ccc([N+](=O)[O-])cc1` (configuration not stated), the inhibition was active: 57.2%. Take `Cc1ccc(C(=O)NC2(C(F)(F)F)C(=O)Nc3c2c(=O)[nH]c(=O)n3CCc2ccccc2)cc1` (configuration not stated): the inhibition was 17.8%. As for `CCOC(=O)c1cc(-c2ccccc2)n(CCCC(=O)Nc2ccc(C)cc2C)c1C`, the figure is 11.1%; as for `O=C(N/N=C/c1ccccc1O)C1CC(=O)N(c2ccc(Cl)cc2)C1` (configuration not stated), active: 35.2%.

Consider `O=c1[nH]c(SCc2ccc(Br)cc2)nc2c1CCCC2`, for which the inhibition turned out to be 1.05%. `Cc1ccc(S(=O)(=O)N2CCN=C2SCc2ccc(Cl)c(Cl)c2)cc1`: the inhibition is active: 30.2%. The value for `Cc1ccc(S(=O)(=O)c2nnn3c2nc(N2CCN(c4ccccc4F)CC2)c2ccccc23)cc1C` was 13.5%; that for `O=C(NC1CC(=O)N(c2ccc(Cl)cc2)C1)c1cccs1` (configuration not stated) was 21.5%. As for `CC(NC(=O)Cn1c(-c2cccs2)cc2cc(F)ccc21)c1ccccc1` (configuration not stated), the figure is -0.575%; as for `O=C(CSc1nc(=O)n(Cc2ccco2)c2c1CCC2)NCc1ccc(F)cc1`, -22.5%. As to `COc1ccc(N=Cc2c(O)n(-c3cccc(C)n3)c(=O)c3ccccc23)cc1`, the inhibition was active: 32%.

With `COc1ccc(Cl)c2c1[nH]c1nc(SCc3ccccn3)nnc12`, the inhibition is active: 42.9%. The value for `CC1=C(C(=O)Nc2ccccc2C)C(c2ccccn2)n2nc(SCc3ccccc3F)nc2N1` (configuration not stated) was 8.95%; that for `COc1ccc2nc(NC(=O)c3ccc(S(=O)(=O)N4CCCC(C)C4)cc3)sc2c1` (configuration not stated) was 11.5%. As to `CN(c1ccc(C(=O)Nc2ccc(CC#N)cc2)cc1)S(C)(=O)=O`, the inhibition was active: 40.7%. As for `CCc1ccc(NC(=O)CSc2nc(=O)n(Cc3ccco3)c3c2CCC3)cc1`, the figure is 20%; as for `Cc1nc2nc(NC(=O)c3ccc(Cl)cc3)[nH]n2c(=O)c1Cc1ccccc1`, 14.3%; as for `COc1ccc(-c2cc(C(=O)NCCc3ccccc3)c3cc(C(C)C)ccc3n2)cc1`, 27.1%. The value for `CC(=O)c1ccc(N2CCN(C3C(=O)c4ccccc4N3C(C)=O)CC2)cc1` (configuration not stated) was 5.41%; that for `O=S(=O)(c1ccc(Br)cc1)c1nnn2c1nc(NCc1cccs1)c1sccc12` was -8.84%; that for `COCCCNC(=O)C1CCN(c2cc(C)nc3c(-c4ccc(OC)c(OC)c4)c(C)nn23)CC1` was -0.724%.

Usually inhibition stands for the relative decrease from the control value, in per cent.

Source of the values: PubChem BioAssay AID485344 (National Center for Advancing Translational Sciences (NCATS), 2010).
